The other results are listed elsewhere or left out.

We go through 153 variants from a collection of fitness landscapes (doi:10.1126/science.1257360).

To fix the notation:
B1: PhoQ; a variant is named by its letters at X, in order, P23837 (parent)
chain: MKKLLRLFFPLSLRVRFLLATAAVVLVLSLAYGMVALIGYSVSFDKTTFRLLRGESNLFYTLAKWENNKLHVELPENIDKQSPTMTLIYDENGQLLWAQRDVPWLMKMIQPDWLKSNGFHEIEADVNDTSLLLSGDHSIQQQLQEVREDDDDAEMTHSVAVNVYPATSRMPKLTIVVVDTIPVELKSSYMVWSWFIYVLSANLLLVIPLLWVAAWWSLRPIEALAKEVRELEEHNRELLNPATTRELTSLVRNLNRLLKSERERYDKYRTTLTDLTHSLKTPLXXLQXXLRSLRSEKMSVSDAEPVMLEQISRISQQIGYYLHRASMRGGTLLSRELHPVAPLLDNLTSALNKVYQRKGVNISLDISPEISFVGEQNDFVEVMGNVLDNACKYCLEFVEISARQTDEHLYIVVEDDGPGIPLSKREVIFDRGQRVDTLRPGQGVGLAVAREITEQYEGKIVAGESMLGGARMEVIFGRQHSAPKDE

In this assay the parent is B1. As to the kind of experiment: enrichment ratio after two sorts for PhoP signalling (ratio (wild type AVST 3.29)); higher = more functional. The note with it: with PhoP (E. coli).
With TAGT, the enrichment ratio worked out at 7.68.
Consider RNKT, for which the enrichment ratio was at most 0.25.
Consider TQIN, for which the enrichment ratio was at most 0.25.
In the case of RHIA it was at most 0.25.
Consider GMYM, for which the enrichment ratio is at most 0.25.
Turning to PVDI, the enrichment ratio was at most 0.25.
Regarding KVMR, the enrichment ratio is at most 0.25.
In the case of PYSN it was at most 0.25.
Then GVQL, with at most 0.25; and PRDP, with at most 0.25.
LFHE: the enrichment ratio was at most 0.25.
FFRF: the enrichment ratio was at most 0.25.
In the case of ACWI, the enrichment ratio is at most 0.25.
In the case of SNSM it was 33.4; in that of YSVF, at most 0.25; in that of IHVN, at most 0.25.
For EQYF, the enrichment ratio was at most 0.25.
Take RVCN: the enrichment ratio was at most 0.25.
VKHL: the enrichment ratio was at most 0.25.
Consider HAMM, for which the enrichment ratio turned out to be 7.86.
Regarding PLLL, the enrichment ratio was at most 0.25.
With WIKG, the enrichment ratio is at most 0.25.
Then NDPE, with at most 0.25.
Then MCYS, with 12.8.
In the case of IEAA it was at most 0.25.
Take WGFH: the enrichment ratio is at most 0.25.
Then MHRC, with at most 0.25; and INTR, with at most 0.25; and KMQH, with at most 0.25.
Regarding RCWW, the enrichment ratio is at most 0.25.
As for IKEQ, the enrichment ratio is at most 0.25.
On to KVWC, for which the enrichment ratio is at most 0.25.
In the case of LSGN it was at most 0.25.
With PPCH, the enrichment ratio was at most 0.25.
In the case of PKGQ it was at most 0.25; in that of VETQ, at most 0.25.
In the case of YRQP, the enrichment ratio is at most 0.25.
Take FDSQ: the enrichment ratio is at most 0.25.
Regarding NTDH, the enrichment ratio is at most 0.25.
Take EFYA: the enrichment ratio is at most 0.25.
Then HAAW, with at most 0.25; and VKRT, with at most 0.25.
Turning to IAPH, the enrichment ratio was at most 0.25.
With IDFN, the enrichment ratio is at most 0.25.
As for ENIM, the enrichment ratio is at most 0.25.
Then EYMS, with at most 0.25.
In the case of HSGH it was at most 0.25.
Regarding QNFK, the enrichment ratio is at most 0.25.
Then WYNE, with at most 0.25; and ETMP, with at most 0.25; and TAQT, with 7.05.
In the case of GWGF it was at most 0.25; in that of FVAT, at most 0.25.
In the case of GRNA it was at most 0.25; in that of TLKV, 48.4.
For the variant QYPM, the enrichment ratio was at most 0.25.
For the variant NDCR, the enrichment ratio is at most 0.25.
On to MMFG, for which the enrichment ratio is at most 0.25.
On to AQCQ, for which the enrichment ratio was determined as 31.6.
Regarding FPRI, the enrichment ratio is at most 0.25.
Regarding IMYN, the enrichment ratio was at most 0.25.
YCWE: the enrichment ratio was at most 0.25.
In the case of FSWF it was 0.273; in that of MNSE, at most 0.25; in that of MQQV, at most 0.25.
In the case of RCYN it was at most 0.25; in that of LWMC, at most 0.25.
Turning to VQLP, the enrichment ratio was at most 0.25.
In the case of DNDP it was at most 0.25.
Then ELHT, with at most 0.25; and MINF, with at most 0.25; and FCSC, with at most 0.25.
Then DCVW, with at most 0.25; and NGWI, with at most 0.25; and WICK, with at most 0.25.
Take WSLA: the enrichment ratio is at most 0.25.
Then PHIH, with at most 0.25; and TRLL, with 9.72; and SCAW, with 1.61.
Take VFCV: the enrichment ratio was at most 0.25.
In the case of AVLD it was at most 0.25.
In the case of YFMG it was at most 0.25; in that of DMDC, at most 0.25.
In the case of WCCK it was at most 0.25; in that of DSRV, at most 0.25; in that of VNCS, at most 0.25.
FDNI: the enrichment ratio is at most 0.25.
As to VRLV, the enrichment ratio is at most 0.25.
Then THGC, with 5.27.
Consider RNQY, for which the enrichment ratio was at most 0.25.
Then HIFI, with at most 0.25; and QDLS, with at most 0.25; and QFSQ, with at most 0.25.
Then NRGW, with at most 0.25; and MSHQ, with 12.
As to HRLG, the enrichment ratio was at most 0.25.
Consider HSRN, for which the enrichment ratio was at most 0.25.
In the case of PMIY it was at most 0.25.
Then TLEP, with at most 0.25; and SQNN, with 1.32; and NGVY, with at most 0.25.
Take RCVY: the enrichment ratio was at most 0.25.
Take WVCL: the enrichment ratio is at most 0.25.
Consider MYLY, for which the enrichment ratio is at most 0.25.
Then KGSA, with at most 0.25; and HNHY, with at most 0.25; and DTVK, with at most 0.25.
In the case of TYKF it was at most 0.25; in that of WQAI, at most 0.25; in that of MFRG, at most 0.25.
Then YLDH, with at most 0.25; and TNSM, with 23.5; and KQDV, with at most 0.25.
Regarding DGRN, the enrichment ratio is at most 0.25.
As to YEIL, the enrichment ratio is at most 0.25.
Then EFPH, with at most 0.25.
Turning to PQIV, the enrichment ratio was at most 0.25.
For the variant AAMP, the enrichment ratio was at most 0.25.
Then FSYI, with 1.45.
In the case of TGQL it was 5.01; in that of FAMG, 2.98; in that of CRWA, at most 0.25.
On to PTYI, for which the enrichment ratio is at most 0.25.
Consider RMYE, for which the enrichment ratio was at most 0.25.
In the case of QPGT it was at most 0.25; in that of RYCP, at most 0.25.
In the case of MDQH it was at most 0.25; in that of RHLF, at most 0.25.
With NNQR, the enrichment ratio was at most 0.25.
As for IVRN, the enrichment ratio is at most 0.25.
Then MCSQ, with 11.6; and HGAW, with at most 0.25; and LYFA, with at most 0.25.
Consider RHFP, for which the enrichment ratio is at most 0.25.
NRLR: the enrichment ratio was at most 0.25.
In the case of QHGL it was at most 0.25; in that of IFEI, at most 0.25; in that of TPKD, at most 0.25.
As for QWCL, the enrichment ratio was at most 0.25.
Then NEWH, with at most 0.25; and LTYG, with at most 0.25.
Then YVCQ, with 0.277; and NGNC, with at most 0.25; and SQED, with at most 0.25.
Then GDWF, with at most 0.25; and VGFQ, with at most 0.25.
As to NHVE, the enrichment ratio was at most 0.25.
As to GNEG, the enrichment ratio was at most 0.25.
As to PLCT, the enrichment ratio was at most 0.25.
In the case of FEGI it was at most 0.25; in that of MPIV, at most 0.25.
Consider IRTT, for which the enrichment ratio is at most 0.25.
Then ESAW, with at most 0.25.
